We go through eight molecules from patent US20250179172A1 (HAINAN SIMCERE ZAIMING PHARMACEUTICAL, published 2025).

The target of experiment [1] is T1, human CD5 (Arg25-Pro372)-His protein (Acro, Cat. No. CD5-H52H5) (human, UniProt P06127 25-372).
T1 construct: range 25-372; also called human CD5-His; hCD5-His; not shown: His tag
T1 sequence (looked up): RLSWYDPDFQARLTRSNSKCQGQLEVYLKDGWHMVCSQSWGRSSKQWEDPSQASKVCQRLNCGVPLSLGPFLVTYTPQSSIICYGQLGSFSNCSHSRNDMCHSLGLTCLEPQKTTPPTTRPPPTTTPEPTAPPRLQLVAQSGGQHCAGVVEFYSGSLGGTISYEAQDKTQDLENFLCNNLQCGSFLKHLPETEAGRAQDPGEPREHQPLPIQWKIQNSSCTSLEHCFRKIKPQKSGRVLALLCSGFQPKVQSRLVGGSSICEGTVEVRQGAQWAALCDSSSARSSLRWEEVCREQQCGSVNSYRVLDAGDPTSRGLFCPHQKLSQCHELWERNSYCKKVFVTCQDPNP
Nature of the experiment: ELISA on hCD5-His, antibody 10 nM. As for the experimental part:
(§1) The binding activity of the H65 antibody prepared above with human CD5 protein was subjected to ELISA assay. A purchased commercial antigen (human CD5-His) was diluted with PBS to obtain a final concentration of 2 μg/mL, and then added to a 96-well ELISA plate with 100 µL/well. The plate was sealed with a plastic film and incubated at 4° C. over the night, washed twice with PBS in the next day, added with a blocking solution [PBS+2% (w/w) BSA] and blocked at room temperature for 2 h. The blocking solution was drained out, and 100 nM of the H65 antibody or negative control antibody hIgG1 after gradient dilution was added, namely, the obtained product was the antibody Anti-HEL-hIgG1 against hen egg lysozyme (purchased from Biointron, Cat. No. B117901) with 50 μl per well. After incubation for 2 h at 37° C., the plate was washed for 3 times with PBS. A secondary antibody labeled with HRP (horseradish peroxidase) (A0170, purchased from Sigma) was added. After incubation for 2 h at 37° C., the plate was washed for 5 times with PBS. A TMB substrate was added with 50 μL/well and incubated at room temperature for 30 min, then a stop solution (1.0 N HCl) was added with 50 μL/well.
(§2) To assay the binding activity of VHH-hFc to human CD5 protein, ELISA assay was performed according to the method described in Example 2.2. […] IgG control is hIgG1, and data in the table are values of OD_{450 nm}.
In general terms: An ELISA detects its analyte on a solid surface through an enzyme-linked reagent.

In experiment [2] the target is T1, human CD5 (Arg25-Pro372)-His protein …. Nature of the experiment: ELISA on hCD5-His, antibody 0.001 nM. The method, then: as §1, §2
Experiment [3] concerns the target T2, human CD5, full length, on cells (Jurkat, endogenous; CHO-K1-human CD5, transfected) (human, UniProt P06127 25-495).
T2 construct: Jurkat cells carry the endogenous protein; also called hCD5; CHO-K1-hCD5-2B2
T2 sequence: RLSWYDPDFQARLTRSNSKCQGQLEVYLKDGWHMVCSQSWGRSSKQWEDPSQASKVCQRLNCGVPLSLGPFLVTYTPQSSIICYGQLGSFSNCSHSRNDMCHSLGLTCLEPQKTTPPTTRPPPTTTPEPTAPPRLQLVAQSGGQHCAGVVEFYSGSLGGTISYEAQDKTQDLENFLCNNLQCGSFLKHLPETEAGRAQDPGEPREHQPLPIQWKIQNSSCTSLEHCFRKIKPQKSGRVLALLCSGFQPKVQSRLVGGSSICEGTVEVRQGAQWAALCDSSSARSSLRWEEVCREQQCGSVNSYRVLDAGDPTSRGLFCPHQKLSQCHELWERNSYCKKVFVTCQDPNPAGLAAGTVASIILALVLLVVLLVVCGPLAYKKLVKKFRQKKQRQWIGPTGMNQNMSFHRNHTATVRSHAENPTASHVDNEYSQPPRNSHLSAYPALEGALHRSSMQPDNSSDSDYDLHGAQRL
Nature of the experiment: FACS on CHO-K1-human CD5 cells. The source says:
The desired cells were expanded to a logarithmic growth phase in a T-75 cell culture flask. Adherent cells CHO-K1-human CD5 were removed from the culture medium by pipetting, and the cells were washed twice with a PBS buffer, digested with trypsin, and washed twice with a PBS buffer again after the digestion was stopped. For suspension cells Jurkat, the medium supernatant was discarded by direct centrifugation, and the cell pellet was washed twice with PBS. After the cells obtained in the last step were subjected to cell counting, the cell pellet was resuspended to 2×10⁶ cells/mL with a blocking solution [PBS+2% (w/w) BSA] and added to a 96-well FACS reaction plate with 50 μL/well. The VHH-hFc or control antibody was added with 50 μL/well, and the plate was incubated on ice for 2 h. […] After the plate was centrifuged and washed for 5 times with a PBS buffer, the results were assayed and analyzed by FACS (FACS Canto™, purchased from BD Biosciences). Data analysis was performed by software (BD FACSDiva) to obtain the mean fluorescence intensity (MFI) of the cells. Analysis was then performed by software (GraphPad Prism8), data were fitted, and EC₅₀ values were calculated. […] The same method was used to assay the binding reactions of 1 nM and 10 nM VHH-hFc antibodies with Jurkat cells and endogenous CD5-negative Raji cells, and to assay the binding reactions of 1 nM and 10 nM VHH-hFc antibodies with CHO-K1 cells and CHO-K1-human CD5.

Experiment [4] deals with T1, human CD5 (Arg25-Pro372)-His protein …. As to the kind of experiment: ELISA on hCD5-His, antibody 0.0001 nM. The method, then:
as §1, §2

Experiment [5] has the same target. Nature of the experiment: ELISA on hCD5-His, antibody 0.01 nM. As for the experimental part: as §1, §2
The target is the same in experiment [6]. Nature of the experiment: ELISA on hCD5-His, antibody 1 nM. As for the experimental part:
as §1, §2

The target is the same in experiment [7]. Nature of the experiment: ELISA on hCD5-His, antibody 100 nM. The method, then:
as §1, §2

B1: H65 scFv-hFc (Fc fusion)
chain: NIQLVQSGPELKKPGETVKISCKASGYTFTNYGMNWVKQAPGKGLRWMGWINTHTGEPTYADDFKGRFAFSLETSASTAYLQINNLKNEDTATYFCTRRGYDWYFDVWGAGTTVTVSSGGGGSGGGGSGGGGSDIKMTQSPSSMYASLGERVTITCKASQDINSYLSWFHHKPGKSPKTLIYRANRLVDGVPSRFSGSGSGQDYSLTISSLDYEDMGIYYCQQYDESPWTFGGGTKLEMK[human IgG1 Fc with changes not printed]
notes: also called H65 antibody
Broadly, the EC50 is the concentration giving half of the maximal effect. Read a high EC50 as lower potency in that assay. B1: the OD450 amounted to 2.35 OD450 in experiment [1]; 0.09 OD450 in experiment [2]; 0.07 OD450 in experiment [4]; 0.17 OD450 in experiment [5]; 1.87 OD450 in experiment [6]; 2.82 OD450 in experiment [7]. Besides, in experiment [3], the EC50 was 0.8 nM. Moreover, the “Max MFI” value in experiment [3] worked out at 4700 MFI.

B2: S005-NB145-74 VHH-hFc (Fc fusion)
chain: EVQLVESGGGLVQAGGSLRLSCAASESTFSITAMGWYRQAPGKQRELVAAITSPGGSTNYADSVKGRFTISRDNAKNTMLLQMNSLKPEDTAVYYCNADINHGSGYYTVSWGQGTQVTVSS[human IgG1 Fc with changes not printed]
notes: VHH fused to human IgG1 Fc; no linker stated
On to B2, for which the OD450 in experiment [1] came out at 2.08 OD450; in experiment [2], 0.1 OD450; in experiment [4], 0.08 OD450; in experiment [5], 0.22 OD450; in experiment [6] it was 1.92 OD450; in experiment [7] it was 2.43 OD450. In experiment [3], the concentration giving a half-maximal response (EC50) was 3.64 nM. Moreover, in experiment [3], the “Max MFI” value was determined as 2140 MFI.

B3: S005-NB144-43 VHH-hFc (Fc fusion)
chain: QVQLVESGGGLVQPGGSLRLSCAASGFTWDYYAIGWFRQAPGKEREGVSCIDSSGGSINYLDSVKGRFTVSRDNAKNTVYLQMDSLKPEDTAIYYCAASSYWDCAVPDTGSPKTGHLESYFGSWGQGTQVIVSS[human IgG1 Fc with changes not printed]
notes: VHH fused to human IgG1 Fc; no linker stated; also called S002-NB144-43
With B3, the OD450 in experiment [1] was found to be 2.16 OD450; in experiment [2], 0.12 OD450; in experiment [4] it was 0.09 OD450; in experiment [5], 0.24 OD450; in experiment [6] it was 1.84 OD450; in experiment [7], 2.5 OD450. In experiment [3], this molecule came in with a half-maximal effective concentration (EC50) of 3.47 nM. Besides, the “Max MFI” value in experiment [3] was 5920 MFI.

B4: S005-NB144-4 VHH-hFc (Fc fusion)
chain: EVQVVESGGGLVQAGGSLRLSCAASGSIFSINAMGWYRQAPGKEREVVAAISNGGNTYYEDSVMGRFTISRDNAKGTLYLQMNGLKPEDTAVYYCNADTVVGGGLLTEVWGQGTLVTVSS[human IgG1 Fc with changes not printed]
notes: as for B2
Regarding B4, the OD450 in experiment [1] came out at 3 OD450; in experiment [2] it was 0.17 OD450; in experiment [4], 0.09 OD450; in experiment [5], 0.28 OD450; in experiment [6], 2.77 OD450; in experiment [7], 3.18 OD450. In experiment [3], the EC50 amounted to 1.19 nM. In addition, in experiment [3], the “Max MFI” value worked out at 9750 MFI.

B5: S005-NB144-73 VHH-hFc (Fc fusion)
chain: EVQVVESGGGLVQAGGSLRLSCAASGDTICISAMYWYRQAPGKAREMVAAITSGGSTYYEDSVMGRFTIFRENAKNTVYLQMNSLKPEDTAVYYCNADIAGHNCSGYLKEYWGQGTQVTVSA[human IgG1 Fc with changes not printed]
notes: VHH fused to human IgG1 Fc; no linker stated; also called S002-NB144-73
With B5, the OD450 is 2.24 OD450 in experiment [1]; 0.08 OD450 in experiment [2]; 0.07 OD450 in experiment [4]; 0.14 OD450 in experiment [5]; 1.65 OD450 in experiment [6]; 2.4 OD450 in experiment [7]. In experiment [3], this molecule returned an EC50 of 0.41 nM. Also, the “Max MFI” value in experiment [3] stood at 5390 MFI.

B6: S005-NB145-3 VHH-hFc (Fc fusion)
chain: QVQLVESGGGLVQPGGSLRLSCAASGFSLDYYAIGWFRQAPGKEREGVSYISPSDGRTYYADSVKGRFTISRDNAKNTVYLQMNSLKPEDTAVYYCATDWGSTSFDYGLKLSPTQYGYWGQGTQVTVSS[human IgG1 Fc with changes not printed]
notes: as for B2
Take B6: the OD450 is 1.91 OD450 in experiment [1]; 0.13 OD450 in experiment [2]; 0.1 OD450 in experiment [4]; 0.2 OD450 in experiment [5]; 1.83 OD450 in experiment [6]; 2.43 OD450 in experiment [7]. Moreover, a half-maximal response in experiment [3] (EC50) required 4.08 nM. Besides, the “Max MFI” value in experiment [3] was 1260 MFI.

B7: S005-NB145-92 VHH-hFc (Fc fusion)
chain: EVQLVESGGGLVQPGGSLRLSCAASGFSLDYYAIGWFRQAPGKEREGVSYISASDGSTYYADSVKGRFTISRDNAKNTVYLQMNSLKPEDTAVYYCATDWGSGSFNYGLRLSPTQYDYWGQGTQVTVSS[human IgG1 Fc with changes not printed]
notes: as for B2
Regarding B7, the OD450 in experiment [1] stood at 2.04 OD450; in experiment [2] it was 0.18 OD450; in experiment [4], 0.14 OD450; in experiment [5] it was 0.3 OD450; in experiment [6] it was 1.78 OD450; in experiment [7], 2.6 OD450. For the same molecule, the response in experiment [3] was half-maximal at 8.22 nM (EC50). Moreover, the “Max MFI” value in experiment [3] was 1050 MFI.

B8: S005-NB145-22 VHH-hFc (Fc fusion)
chain: QVQLVESGGGLVQAGGSLRLSCAVSGRTLSTVVVGWFRQTPGREREFVAVSRSGGATGYADSVKDRFTISRDNAKNTVALQMNSLKPEDTAVYYCAGRGSGLYGSSWYNQIQEYDGWGQGTQVTVSS[human IgG1 Fc with changes not printed]
notes: as for B2
B8: the OD450 in experiment [1] is 1.83 OD450; in experiment [2] it was 0.12 OD450; in experiment [4] it was 0.09 OD450; in experiment [5] it was 0.2 OD450; in experiment [6], 1.67 OD450; in experiment [7], 2.16 OD450. Besides, in experiment [3], the concentration giving a half-maximal response (EC50) stood at 1.53 nM. In addition, in experiment [3], the “Max MFI” value came out at 3330 MFI.
